This is an account of results in PubChem BioAssay AID1745853 (National Center for Advancing Translational Sciences (NCATS), 2022).

Experiment in all cases: Primary Screen for Target Class Profiling of Small Molecule Inhibitors of Methyltransferases
Assay [1] addresses Glycine N-methyltransferase (Homo sapiens) (UniProt Q14749). The note with it: purified enzyme, MTase-Glo SAH luminescence; measured here: GNMT inhibition; at 40 µM; stronger effect = lower value. Summed up: (§1)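 Each enzyme was assayed with SAM and its substrate. SAH formation detected by MTase-Glo luminescence; single-point 40 uM screen[…].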
Assay [2] addresses Guanidinoacetate N-methyltransferase (Homo sapiens) (UniProt Q14353). The note with it: purified enzyme, MTase-Glo SAH luminescence; measured here: GAMT inhibition; at 40 µM; stronger effect = lower value. The essentials:
as §1

In assay [3] the target is Histamine N-methyltransferase (Homo sapiens) (UniProt P50135). The note with it: purified enzyme, MTase-Glo SAH luminescence; measured here: HNMT inhibition; at 40 µM; stronger effect = lower value. Summed up:
as §1

Assay [4] addresses Nicotinamide N-methyltransferase (Homo sapiens) (UniProt P40261). Conditions: purified enzyme, MTase-Glo SAH luminescence; measured here: NNMT inhibition; at 40 µM; stronger effect = lower value. The essentials: as §1
Assay [5] concerns the target Phenylethanolamine N-methyltransferase (Homo sapiens) (UniProt P11086). The note with it: purified enzyme, MTase-Glo SAH luminescence; measured here: PNMT inhibition; at 40 µM; stronger effect = lower value. Summed up:
as §1

Some of the results follow. These are further read-outs of the screen, such as a control signal, another cell line or another target. No call is given for them.
% is set by controls: 0 for no effect and ±100 for the full control effect.

Take `Cc1ccc(C)c(S(=O)(=O)c2nnn3c2nc(N2CCCC2)c2ccccc23)c1`: the activity change, negative = inhibition in assay [1] was -3.15%; in assay [2], 0%; in assay [3], 3.92%; in assay [4], -1.05%; in assay [5] it was -5.79%.
For `CC(C)CCn1c(=O)c2ccc(C(=O)NC(C)C)cc2n2c(=O)n(CC(N)=O)nc12`, in that order: 0.097%, 5.35%, -3.18%, 2.87% and 1.5%.
`CC1CCN(S(=O)(=O)c2ccc3c(ccn3CC(=O)NCCc3ccc(Cl)cc3)c2)CC1`: the activity change, negative = inhibition in assay [1] was -2.29%; in assay [2], -0.301%; in assay [3], -0.407%; in assay [4], -5.91%; in assay [5], -3.18%.
For `COc1ccc2c(c1)CCc1c-2n[nH]c1C(=O)Nc1ccc2c(c1)C(=O)N(C)C1=NCCN12`, the activity change, negative = inhibition in assay [1] is -10.2%; in assay [2], 2.6%; in assay [3], -5.49%; in assay [4], 2.37%; in assay [5], 1.44%.
Taken in the same sequence, the figures for `CCC(C)NC(=O)c1ccc2c(=O)n(Cc3ccccc3)c3nn(Cc4ccccc4C)c(=O)n3c2c1` (stereo not given) were 1.47%, 0%, -0.459%, 7.99% and 2.45%.
Take `Cn1c(=O)n(C)c2cc(S(=O)(=O)Nc3ccccc3)c(Cl)cc21`: the activity change, negative = inhibition in assay [1] is -0.917%; in assay [2] it was 4.28%; in assay [3], 0.984%; in assay [4] it was 6.91%; in assay [5], -2.33%.
Regarding `CCOC(=O)c1cccc(NC(=O)C2=CC(C)(C)Oc3ccc(OC)cc32)c1`, the activity change, negative = inhibition in assay [1] is -6.29%; in assay [2], -13.1%; in assay [3] it was -6.12%; in assay [4], -22.4%; in assay [5], -10.2%.
Taken in the same sequence, the figures for `CCOc1ccc(CN2C(=O)c3cc4ccc(OC)cc4n3CC2(C)C(=O)NC2CCCCC2)cc1` (stereo not given) were 4.28%, 1.18%, 1.31%, -0.499% and -2.44%.
With `Cc1ccc(CNC(=O)N2CCn3cccc3C2Cc2ccccc2)cc1` (stereo not given), the activity change, negative = inhibition in assay [1] was determined as 15.3%; in assay [2] it was 0%; in assay [3], 8.94%; in assay [4] it was 6.6%; in assay [5], 6.42%.
As to `CCOC(=O)c1cc2n(n1)CC(C)(C(=O)NCc1ccccc1)N(Cc1ccc(F)cc1)C2=O` (stereo not given), the activity change, negative = inhibition was -2.66% in assay [1]; -2.97% in assay [2]; 2.36% in assay [3]; 0.886% in assay [4]; -3.81% in assay [5].
Taken in the same sequence, the figures for `O=C(Cc1ccccc1)NCC1CCCCC(=O)N1` (stereo not given) were -1.7%, -1.73%, 0.773%, -0.435% and 1.01%.
Taken in the same sequence, the figures for `COc1cccc(C(=O)Nc2ccc(-c3ccc(OC)nn3)cc2)c1` were -22.2%, -20.3%, -15%, -18.8% and -22.6%.
Taken in the same sequence, the figures for `Fc1ccccc1-c1noc(N2CCCCC2)n1` were -32.8%, -37.3%, -32.5%, -42.5% and -47.3%.
Turning to `COC(=O)c1ncn2c1C(=O)N(Cc1ccccc1Br)C(C)(C(=O)NC1CCCC1)C2` (stereo not given), the activity change, negative = inhibition in assay [1] was -1.18%; in assay [2] it was 1.06%; in assay [3], -14.3%; in assay [4], -4.21%; in assay [5] it was -7.22%.
With `O=C(Nc1ccc(Cl)cc1)Nc1cccc(-c2cccc(N3CCCC3)n2)c1`, the activity change, negative = inhibition in assay [1] was 7.52%; in assay [2], -2.92%; in assay [3] it was 3.57%; in assay [4], -14%; in assay [5] it was 1.97%.
On to `C=C1C(=O)O[C@H]2CC(=C)[C@H]3CC[C@@](C)(O)[C@@H]3CC12` (stereo not given in full), for which the activity change, negative = inhibition in assay [1] is -15.3%; in assay [2] it was -21.1%; in assay [3], -3.26%; in assay [4], -25.6%; in assay [5] it was -10.6%.
For `CCCN(CCC)S(=O)(=O)c1ccc2[nH]c(=O)[nH]c2c1`, in that order: -2.82%, 2.69%, -6.18%, -7.42% and -17.6%.
